Reference: the BET-seq Pho4 binding data (Le et al. 2018)
Some of the results follow. These are noisy estimates, calculated here from bound and input reads.

The sequences below were run against T1, Pho4 (S. cerevisiae) (UniProt P07270) (assay: relative binding free energy (BET-seq); higher = weaker binding). Conditions: reference: library average.
T1 sequence: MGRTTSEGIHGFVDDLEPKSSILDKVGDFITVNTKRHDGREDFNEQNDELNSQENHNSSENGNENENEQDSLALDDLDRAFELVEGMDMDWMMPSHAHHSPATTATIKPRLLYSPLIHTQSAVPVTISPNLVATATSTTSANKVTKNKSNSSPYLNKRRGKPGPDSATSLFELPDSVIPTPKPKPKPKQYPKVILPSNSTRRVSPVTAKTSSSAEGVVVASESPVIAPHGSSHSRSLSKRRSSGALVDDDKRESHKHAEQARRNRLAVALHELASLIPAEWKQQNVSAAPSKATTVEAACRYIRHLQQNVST

Sequence	relative binding free energy [kcal/mol]
ATGCGCACGTGTGTGA	-0.24
CCAGGCACGTGGGTGT	-0.23
TATGTCACGTGGGATT	0.02
GGCGACACGTGTGGTT	0.16
CTACGCACGTGTAGGT	-0.05
GATGACACGTGAGTGA	0.22
GGGTGCACGTGACAGT	-0.1
GGGTTCACGTGTGGCG	0.42
TTCAGCACGTGGGGTC	-0.19
GGCGACACGTGTTGGT	0.21
GTGGACACGTGTTCGT	0.15
ATTGGCACGTGTGTGT	-0.03
CGGGACACGTGGGTTC	-0.03
TTGGGCACGTGGCTTA	-0.27
GGTATCACGTGTTGTT	0.21
TGGACCACGTGGATGG	-0.06
TTAAACACGTGGCGGG	-0.07
AATTGCACGTGAAAGG	0.26
TGTAACACGTGTGAAT	0.14
GATTTCACGTGAATGA	0.43
TTATTCACGTGATGCT	0.29
GGAGACACGTGGTTGT	0.1
ATCGGCACGTGGTATC	0.13
GTGTACACGTGGGATG	-0.1
GTATACACGTGTTAGG	-0.01
CTATGCACGTGTTTGG	-0.03

Sequence	relative binding free energy [kcal/mol]
GGCTGCACGTGCGGAG	0.02
TGGCACACGTGTTATG	0.09
CGGATCACGTGGTTGA	0.3
GTATACACGTGGTGGA	0.06
TGGCGCACGTGGTTTC	-0.12
CTGCGCACGTGTAGTG	-0.19
CTGTTCACGTGGGTCG	0.02
TAATGCACGTGTACTG	-0.01
TGGGCCACGTGTGGGA	0.01
GTGGACACGTGTCTAG	0.19
TAAAACACGTGTTCGG	0.1
ATTTTCACGTGGTAAG	0.26
GCTGTCACGTGTAGCG	0.17
AAAGGCACGTGAGCGT	0.12
GTAGTCACGTGGAGTA	0.08
CTGGGCACGTGACTGT	-0.07
TTTGACACGTGCTGAG	0.04
TATTTCACGTGTGGCT	0.46
TAAGACACGTGTTGGT	0.1
GGTTGCACGTGGAGCT	0.08
GGGGACACGTGAGAAT	0.49
TAGGTCACGTGATGTA	0.23
CATGTCACGTGTTGTC	0.06
ATAGACACGTGGTGGC	-0.08
GGGCGCACGTGATTGA	0.09
TAATGCACGTGTGGGT	0.04

Sequence	relative binding free energy [kcal/mol]
GGATACACGTGGATGG	0.18
GCGGTCACGTGGAGTC	0.15
ATATGCACGTGTGTTT	-0.03
GCTGTCACGTGGGTCG	0.13
GTTTGCACGTGATAGG	0.14
ATGCGCACGTGTGGGT	-0.1
GCATTCACGTGGGTTA	0.15
GCATGCACGTGCGGGT	-0.02
TGATACACGTGGCAGT	-0.08
GATGCCACGTGTTTAG	0.06
ATATTCACGTGGTTTT	0.22
CTGCGCACGTGGTTTG	-0.21
GGAAACACGTGCTGTT	0.11
TCGGTCACGTGGAGGA	0.09
AGTGGCACGTGGAATA	-0.08
TCGTTCACGTGGTGTC	0.35
GTTTGCACGTGTTTCG	0.19
ATAGACACGTGTTCTG	0.02
CATGGCACGTGGTTGG	-0.2
TTAGCCACGTGTTGTT	-0.05
AGTTGCACGTGTTTAC	0.13
GGTGACACGTGTTTCT	0.05
TGGCTCACGTGTGTTG	0.19
TGATGCACGTGTCAGG	0.01
ATAATCACGTGGACGT	0.18
TGATCCACGTGTCGGG	0.04

Sequence	relative binding free energy [kcal/mol]
ATTGTCACGTGAAGTC	0.2
TGGAACACGTGTGATT	0.07
TATTGCACGTGTTTGG	0.12
GTTGGCACGTGGTGAA	-0.09
GTGCGCACGTGGCGGA	-0.14
ATGGCCACGTGTGTAT	-0.07
ATGTTCACGTGGATTA	0.17
TTACTCACGTGTTATG	0.21
ATGTACACGTGATGTA	0.06
TGCGGCACGTGATGGC	0.1
AGGAGCACGTGTAGCG	-0.06
GTATTCACGTGAGTCT	0.28
ATTGACACGTGTGTTG	-0.01
AGTGACACGTGTTGGC	0.01
ATGAGCACGTGAATGA	0.14
AGTATCACGTGACGGG	0.13
TTTTTCACGTGTACAT	0.18
TGGGCCACGTGATGTA	0.05
TGAGGCACGTGAGAGT	0.18
CGATACACGTGTATGG	0.1
TGACGCACGTGGTATT	-0.07
TGTGACACGTGGGTGG	-0.07
GTCGGCACGTGGGTCA	-0.21
GGTTTCACGTGTTTAG	0.34
TCTAACACGTGGGGTA	-0.26
TTCATCACGTGTATTG	0

Sequence	relative binding free energy [kcal/mol]
TGATACACGTGGAATG	0.12
TGGCTCACGTGGAGGC	0.31
GATAACACGTGTTAGG	0.01
TTTGACACGTGTAGTA	0.07
GAGTGCACGTGGGGGA	-0.1
AAATACACGTGGTTGT	-0.04
GGTTCCACGTGCTGTG	0.09
TTCTACACGTGTAGAG	0.18
AGGAACACGTGAGGAG	0.21
ATGGTCACGTGTTTAT	0.14
AGGAACACGTGAGGTA	0.26
CTAAACACGTGGGGTG	-0.17
TTGTGCACGTGTATTA	-0.03
TCGAGCACGTGTTGAT	0.11
AGAAGCACGTGAGGTG	0.13
TTCCACACGTGTGGGG	0.12
TTACTCACGTGGTTGG	0.28
AGTTTCACGTGGTGAT	0.29
AGGTTCACGTGATTGG	0.42
GGAATCACGTGGAGGT	0.32
TTTGGCACGTGGAGTG	-0.07
ACTTTCACGTGTTAGT	0.26
GTATTCACGTGTCGGC	0.19
TGGTACACGTGATTTA	0.12
ATAGACACGTGGGAGG	-0.11
GGGTTCACGTGTCATT	0.24

Sequence	relative binding free energy [kcal/mol]
TTTTTCACGTGCATCG	0.41
AGCGTCACGTGCGGTG	-0.11
TACGGCACGTGTGATT	-0.05
GGACTCACGTGGTGTG	0.14
TGGTGCACGTGATTAC	0.12
CGATGCACGTGAAGGT	0.22
GGGTGCACGTGGAGTA	0.01
TTTGACACGTGTCCGG	0.1
AGGGTCACGTGTGTCT	0.23
GTTAACACGTGTTCGT	0.09
GTTAGCACGTGAGGGG	0.21
AAGTTCACGTGAATTG	0.27
AGAGGCACGTGTACGT	-0.06
CAGTTCACGTGTGGGA	0.27
ATAGGCACGTGATGTT	0.04
TGTTTCACGTGTTGAA	0.26
TGGGACACGTGGCAGG	-0.06
GGTTGCACGTGAGAGC	0.27
GTCTACACGTGTGGTA	-0.02
GTTTACACGTGTGATA	0.2
TCAGGCACGTGGGTGT	-0.29
GCTGGCACGTGAGGTA	0.13
ATATTCACGTGTTTTG	0.14
CGTAGCACGTGTGGCT	-0.07
AACGTCACGTGAGTGG	0.19
CTTGACACGTGTGAGT	0.09

Sequence	relative binding free energy [kcal/mol]
AGTTACACGTGCGTTA	0.07
GATTTCACGTGGGCAT	0.24
AGTGGCACGTGTGGCA	-0.02
TAGGACACGTGTGGAA	0.12
TGTTACACGTGGGTTC	-0.04
GTTTACACGTGGGGAG	0.1
TAGTTCACGTGTTCTG	0.3
TTCGACACGTGGGCGT	-0.08
CCGGTCACGTGGGATG	-0.03
ACGTTCACGTGTAAAT	0.43
AATTGCACGTGGGACG	-0.2
GAGAACACGTGTTTGG	-0.03
TAGTTCACGTGAGCGT	0.37
TTGACCACGTGGAAGG	0.07
TCGGTCACGTGGAAGG	0.19
GCGGGCACGTGGAGTT	-0.09
TTGTTCACGTGTGGTA	0.39
TCTGACACGTGGGAGT	0
ATATGCACGTGGGGGG	-0.2
GGGGACACGTGATTTA	0.3
ATCTTCACGTGAGGGT	0.38
GGATGCACGTGGTGGA	-0.07
GTTTTCACGTGTATAA	0.17
TTGAGCACGTGATCGG	-0.12
GTGCCCACGTGGGTGG	-0.23
GCAGTCACGTGAGTTT	0.29

Sequence	relative binding free energy [kcal/mol]
GGGGCCACGTGTGCGT	-0.15
TTTAGCACGTGTTAAC	0
GGATGCACGTGAGGTG	0.36
TCGTACACGTGTTGAG	0.03
TGGTTCACGTGCGTGG	0.25
CGGGGCACGTGTAGCT	-0.16
TGTGTCACGTGATAGG	0.22
GTTGTCACGTGCGTGA	0.06
GGAATCACGTGTGAGT	0.15
GAGGCCACGTGAGTGG	0.22
TGGTGCACGTGGCGAC	-0.13
GTGAGCACGTGATCGT	0.11
ATGTTCACGTGTCGGA	0.35
AGAGACACGTGGGGTC	-0.19
AGTCGCACGTGTAGTG	0.04
GTAGTCACGTGGGGTA	-0.15
TTGTGCACGTGAGGGT	0.27
TTGGACACGTGGATGG	0.13
ATGATCACGTGACGTG	0.18
ACTGGCACGTGGGGGT	-0.36
ACGGGCACGTGTGTCT	-0.06
GATTCCACGTGGATGT	0.2
ATATTCACGTGGCGTA	0.09
GGGGCCACGTGTTAAG	0.08
GGTAACACGTGTGTCT	-0.03
CTTTGCACGTGGGGCG	-0.15

Sequence	relative binding free energy [kcal/mol]
ATTGTCACGTGGGATA	-0.03
ATATCCACGTGGGGTT	-0.04
CAGTGCACGTGTCTGT	0.01
CGGGTCACGTGTGAGC	0.17
AAGGGCACGTGATGTA	-0.03
GGGGACACGTGCATTG	-0.1
AGTCGCACGTGAGGTT	0.17
GGCTGCACGTGCTAGG	-0.04
GTTTTCACGTGTATTA	0.28
GTCTTCACGTGAGTTG	0.25
TTAATCACGTGTCGTT	0.28
CGGGGCACGTGGTTCG	-0.04
TAGGTCACGTGTCTGG	0.17
GGGGGCACGTGCGTGC	-0.23
ATATGCACGTGATAAT	0.02
TGCGTCACGTGAGGAC	0.35
AGGGGCACGTGAATCG	0.23
CTGAGCACGTGTATGT	-0.06
GTGCGCACGTGAGTGT	0.06
GGGCGCACGTGTGAGC	0.1
AGGTACACGTGGAGCA	0.09
GCTGTCACGTGGGCTT	0.01
